{"source": "PubChem BioAssay AID1460", "about": "(National Center for Advancing Translational Sciences (NCATS), 2008)", "note": "Several values for one entry are separate records, joined by “and”; a condition that tells them apart may be missing. Equal values may be shown once. Hit rate of the full screen: of about 270,000 compounds, about 5,800 (2.1%) were called active. The inconclusive results got no clear call from the source; some entries with a clear call stand among them for comparison. The call rests on the fitted dose curve; in most records, active means well fitted inhibition curve with a large enough effect; inconclusive means small, poorly fitted or top-dose-only effect; inactive means flat fitted curve, though single readings scatter. Potencies beside an inconclusive call are fits to weak or partial responses and may not hold up. On the % scale 0 is the no-effect control and ±100 the full control effect; potency means the concentration at half of the fitted maximal effect; tags describe the fitted curve by direction and shape.", "data": [{"target": "Microtubule-associated protein tau (Homo sapiens) (UniProt P10636)", "sequence (P10636 whole entry, looked up, the tested form may be a part)": "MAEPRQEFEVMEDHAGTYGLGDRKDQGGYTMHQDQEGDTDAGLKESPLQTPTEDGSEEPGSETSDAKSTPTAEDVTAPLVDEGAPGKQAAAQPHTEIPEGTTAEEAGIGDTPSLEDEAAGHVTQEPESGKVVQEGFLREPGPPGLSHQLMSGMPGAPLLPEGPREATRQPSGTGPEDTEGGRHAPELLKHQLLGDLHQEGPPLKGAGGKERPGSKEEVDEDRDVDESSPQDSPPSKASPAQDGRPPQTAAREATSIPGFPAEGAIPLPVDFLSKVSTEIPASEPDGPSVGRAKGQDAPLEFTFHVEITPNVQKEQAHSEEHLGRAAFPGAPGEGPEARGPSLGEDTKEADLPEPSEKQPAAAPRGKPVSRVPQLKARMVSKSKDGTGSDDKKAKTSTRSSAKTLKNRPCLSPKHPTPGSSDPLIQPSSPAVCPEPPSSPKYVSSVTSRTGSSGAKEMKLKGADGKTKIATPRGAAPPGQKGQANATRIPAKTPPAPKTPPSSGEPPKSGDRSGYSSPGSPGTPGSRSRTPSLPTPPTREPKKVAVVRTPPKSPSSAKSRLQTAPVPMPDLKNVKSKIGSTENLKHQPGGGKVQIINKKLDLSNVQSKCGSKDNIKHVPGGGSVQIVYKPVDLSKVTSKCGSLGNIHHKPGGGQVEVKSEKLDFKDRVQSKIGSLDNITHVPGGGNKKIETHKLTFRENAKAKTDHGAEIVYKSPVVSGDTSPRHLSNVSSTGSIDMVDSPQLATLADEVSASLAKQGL", "assay": "qHTS for Inhibitors of Tau Fibril Formation, Thioflavin T Binding; further: nearly all actives have a fitted effect of over 55% in size", "settings": "recombinant tau K18 P301L (four-repeat tau fragment), heparin-induced fibrillization, ThT fluorescence; series mostly up to 57.4 µM; activity, negative = inhibition: at the top concentration", "summary_of_the_method": "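In this qHTS, human K18 P301L tau is incubated with compound and heparin for 6 hr at 37 C, and Thioflavin T fluorescence then reports fibril load.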", "values": [{"smiles": "O=C(COC(=O)C1CCN(S(=O)(=O)c2cccs2)CC1)c1cc2ccccc2o1", "Potency": "inconclusive: 14.1 µM [inhibitor, partial curve]"}, {"smiles": "Cc1nn(-c2ccccc2)c(N)c1N=Nc1ccc2ccccc2c1", "Potency": "active: 5.01 µM"}, {"smiles": "CCc1ccc(NC(=O)C(=O)NCC(c2cccnc2)N2CCN(C)CC2)cc1", "note": "(centres undefined)", "Potency": "inconclusive: 15.8 µM [inhibitor, partial curve]"}, {"smiles": "O=C(Nc1ccc2oc(-c3cccnc3)nc2c1)c1ccc(-c2ccccc2)o1", "Potency": "inconclusive: 0.501 µM [inhibitor, full curve]"}, {"smiles": "CC(=O)c1cccc(N=Nc2c(C)[nH]c3ccccc23)c1", "Potency": "active: 10 µM"}, {"smiles": "COc1ccc2c(c1)OC(=O)CC2c1ccc2c(c1)OCO2", "note": "(centres undefined)", "activity, negative = inhibition": "inactive: -17.7% [at 81.4 µM]"}, {"smiles": "CC1=NN(c2ccccc2)C(=O)C1", "Potency": "inconclusive: 4.47 µM [inhibitor, single point] and inconclusive: 2.82 µM [inhibitor, partial curve]"}, {"smiles": "Cc1nn(-c2nc(-c3ccc(F)cc3)cc(C(F)(F)F)n2)c(C)c1Cl", "Potency": "inconclusive: 20 µM [inhibitor, partial curve, poor fit]"}, {"smiles": "CC(=O)c1sc(N/N=C/c2ccc(C(C)C)cc2)nc1C", "Potency": "inconclusive: 5.62 µM [inhibitor, partial curve]"}, {"smiles": "Cc1ccc(N2CCN(/N=C/C3=C(N4CCOCC4)C(=C\\c4ccccc4)/CC3)CC2)cc1", "Potency": "inconclusive: 2.82 µM [inhibitor, full curve]"}, {"smiles": "COc1ccc(OCC(=O)Nn2c(-c3ccc(OC)cc3)nc3ccccc3c2=O)cc1", "activity, negative = inhibition": "inactive: 5.11%"}, {"smiles": "CS(=O)(=O)N1CCN(c2ccc(NC(=S)NC(=O)c3ccc4c(c3)OCO4)cc2)CC1", "Potency": "inconclusive: 0.891 µM [inhibitor, full curve]"}, {"smiles": "COc1ccc(NC(=O)c2ccc(-c3ccccc3C(F)(F)F)o2)cc1", "Potency": "active: 25.1 µM"}, {"smiles": "CCOCc1cnc(C)nc1NCC(=O)c1c(C)n(C)c2ccc(OC)cc12", "Potency": "inconclusive: 20 µM [inhibitor, single point]"}, {"smiles": "O=C(O)c1ccc2nc(-c3cc4cc(F)ccc4oc3=O)[nH]c2c1", "Potency": "inconclusive: 1 µM [inhibitor, full curve]"}, {"smiles": "Cc1cccc(N2CCN(C(=O)c3cc4c(=O)n(C)c5ccccc5c4s3)CC2)c1C", "Potency": "inconclusive: 14.1 µM [inhibitor, partial curve]"}, {"smiles": "COC(=O)C(=Cc1cc(Br)c(OC)c(Br)c1)C(=O)OC", "Potency": "inconclusive: 35.5 µM [inhibitor, partial curve]"}, {"smiles": "Cc1ccc(-n2ccnc(NCCc3ccc(S(N)(=O)=O)cc3)c2=O)cc1C", "Potency": "inconclusive: 8.91 µM [inhibitor, partial curve]"}, {"smiles": "Cc1oc(-c2cccc(Cl)c2)nc1CSc1nc2ncccc2[nH]1", "activity, negative = inhibition": "inactive: -7.77%"}, {"smiles": "N#CC1=C(N)NC(SCC(=O)c2ccccc2)=C(C#N)C12CCCC2", "Potency": "inconclusive: 28.2 µM [inhibitor, partial curve]"}, {"smiles": "COc1ccc(S(=O)(=O)Nc2nnc(C)s2)cc1", "activity, negative = inhibition": "inactive: 3.24%"}, {"smiles": "Cc1sc2nc(SC3CCOC3=O)n(Cc3ccccc3)c(=O)c2c1C", "note": "(centres undefined)", "activity, negative = inhibition": "inactive: -18.4%"}, {"smiles": "COc1cc(C(=O)Nc2ccc(NC(=O)c3ccc(Br)cc3)cc2)cc(OC)c1OC", "activity, negative = inhibition": "inactive: -15.3%"}, {"smiles": "CCN(C(=O)CSc1nc2cc(Cl)ccc2c(=O)n1Cc1ccco1)C1CCS(=O)(=O)C1", "note": "(centres undefined)", "activity, negative = inhibition": "inactive: -8.27%"}, {"smiles": "Cc1cc(O)cc2c(=O)c3ccccc3sc12", "Potency": "inconclusive: 3.16 µM [inhibitor, partial curve]"}, {"smiles": "Cc1cc(C)c2c(SC(C)C)nc(N)nc2n1", "Potency": "inconclusive: 8.91 µM [inhibitor, partial curve]"}, {"smiles": "CCN(CC)S(=O)(=O)c1ccc2c(c1)nc(CCC(=O)Nc1ccc(N3CCOCC3)cc1)n2C", "Potency": "inconclusive: 14.1 µM [inhibitor, partial curve]"}, {"smiles": "CCc1ccc(/C=C2\\Oc3cc(OC(=O)N4CCOCC4)ccc3C2=O)cc1", "Potency": "inconclusive: 1 µM [inhibitor, partial curve, poor fit]"}, {"smiles": "Cc1ccc(/C=N/Nc2nc3ccccc3[nH]2)s1", "Potency": "active: 7.94 µM"}, {"smiles": "COC(=O)c1ccc(Cl)cc1NC(=O)N(C)CCc1c(C)nn(C)c1C", "activity, negative = inhibition": "inactive: 2.58%"}, {"smiles": "COc1cccc2c1C(=O)O/C2=C/c1ccc2c(c1)OCO2", "Potency": "inconclusive: 2.24 µM [inhibitor, full curve]"}, {"smiles": "Cc1ccc(NC(=S)N/N=C/c2ccc([N+](=O)[O-])s2)cc1", "Potency": "active: 5.01 µM"}, {"smiles": "Cn1c(C(=O)N2CCc3ccccc3C2)cc2oc3ccccc3c21", "Potency": "inconclusive: 14.1 µM [inhibitor, partial curve]"}, {"smiles": "COc1ccc(N2CCN(CCCNC(=O)c3cc(Nc4ccccc4OC)nc4ccccc34)CC2)cc1", "Potency": "inconclusive: 12.6 µM [inhibitor, partial curve]"}, {"smiles": "COc1cc(C(=O)N2CCN(c3ccc(Nc4ccccc4)nn3)CC2)cc(OC)c1OC", "Potency": "inconclusive: 28.2 µM [inhibitor, single point]"}, {"smiles": "COCCn1nnnc1C(c1cccs1)N1CCN(c2cc(C)ccc2C)CC1", "note": "(centres undefined)", "Potency": "inconclusive: 44.7 µM [inhibitor, single point]"}, {"smiles": "O=C(Cn1c(O)c(N=NC(=O)c2ccncc2)c2ccccc21)Nc1ccccc1", "Potency": "inconclusive: 3.16 µM [inhibitor, partial curve, poor fit]"}, {"smiles": "CCc1cccc(C)c1NC(=O)C1CCN(S(=O)(=O)Cc2ccccc2)CC1", "Potency": "inconclusive: 28.2 µM [inhibitor, single point]"}, {"smiles": "CCOc1ccc(N2C(=O)CC(SC(=NC)Nc3cccc(F)c3)C2=O)cc1", "note": "(centres undefined)", "Potency": "inconclusive: 3.98 µM [inhibitor, single point]"}, {"smiles": "CSc1nc2nc3c(cc2c(=O)n1-c1ccc(C)cc1)COC(C)(C)C3", "activity, negative = inhibition": "inactive: -2.62%"}, {"smiles": "COc1ccc(-c2nc3ccc(C)cn3c2Nc2ccc3c(c2)OCO3)cc1", "Potency": "inconclusive: 7.94 µM [inhibitor, partial curve]"}, {"smiles": "CC12CN(C(=O)c3ccc(Cl)cc3)C3(C#N)CC1CCC23C", "note": "(centres undefined)", "activity, negative = inhibition": "inactive: -3.67%"}, {"smiles": "Cc1ccc(Nc2nc(N3CCOCC3)nc(N3CCOCC3)n2)cc1", "activity, negative = inhibition": "inactive: -3.82%"}, {"smiles": "CCOc1ccc(C(=O)Nc2ccc(NC(=S)NC(=O)CC)cc2)cc1Cl", "Potency": "inconclusive: 0.708 µM [inhibitor, full curve]"}, {"smiles": "NC(=O)CC(NC(=O)c1ccccc1)c1ccc(NCCc2ccc(Cl)cc2)c([N+](=O)[O-])c1", "note": "(centres undefined)", "Potency": "active: 12.6 µM"}, {"smiles": "CC(C)(C)C1CCC(OC(=O)CCC(=O)Nc2ccccc2)CC1", "note": "(centres undefined)", "Potency": "inconclusive: 39.8 µM [inhibitor, single point]"}, {"smiles": "Cc1ccc(C2=Nc3ccccc3NC(C)(c3ccc(C)o3)C2)o1", "note": "(centres undefined)", "Potency": "inconclusive: 15.8 µM [inhibitor, partial curve]"}, {"smiles": "Cc1cccc(NC(=O)c2sc(-n3nc(C)c(CCC(C)C)c3C)nc2C)c1C", "Potency": "inconclusive: 1.78 µM [inhibitor, full curve]"}, {"smiles": "CCNC(=O)CCSc1nc2cc(Cl)ccc2o1", "activity, negative = inhibition": "inactive: -0.732%"}, {"smiles": "CC1=C(C(=O)Nc2cccc(C(F)(F)F)c2)C2(CCCCC2)OC1=O", "Potency": "inconclusive: 5.62 µM [activator, single point]"}, {"smiles": "O=S(=O)(c1ccc2[nH]c3c(c2c1)CCCCC3)N1CCN(c2cccc(Cl)c2)CC1", "activity, negative = inhibition": "inactive: 11.9%"}, {"smiles": "COc1ccccc1NC(=O)N(Cc1ccco1)Cc1cc2ccc(C)c(C)c2[nH]c1=O", "Potency": "inconclusive: 17.8 µM [inhibitor, partial curve]"}, {"smiles": "NC(N)=NCCC[C@H](N)C(=O)O", "Potency": "inactive"}, {"smiles": "Cc1oc(-c2cccc(Cl)c2)nc1CN1CCCC(C(=O)NCc2ccc(Cl)cc2)C1", "note": "(centres undefined)", "Potency": "inconclusive: 39.8 µM [inhibitor, single point]"}, {"smiles": "CCCN1C(=O)/C(=C/c2c(N3CCNC(=O)C3CC(=O)OC)nc3c(C)cccn3c2=O)SC1=S", "note": "(centres undefined)", "Potency": "active: 5.62 µM"}, {"smiles": "COc1ccc(OC)c(C2C3=C(N=c4s/c(=C\\c5cccc(O)c5)c(=O)n42)c2ccccc2CC3)c1", "note": "(centres undefined)", "Potency": "inconclusive: 7.08 µM [inhibitor, partial curve]"}, {"smiles": "O=[N+]([O-])c1ccc(N2CCCC2)cc1NC1CC1", "Potency": "active: 14.1 µM"}, {"smiles": "CN1c2ccccc2N(C)C1(C)c1ccccc1", "activity, negative = inhibition": "inactive: 3.91%"}, {"smiles": "O=C(C1CC(c2ccc(F)cc2)=NO1)N1CCN(c2ccccc2)CC1", "note": "(centres undefined)", "Potency": "inconclusive: 0.178 µM [inhibitor, full curve, poor fit]"}, {"smiles": "CCOC(=O)c1c(NC(=O)c2ccccc2)sc2c1CCc1ccccc1-2", "Potency": "inconclusive: 20 µM [inhibitor, single point]"}, {"smiles": "CCOc1ccc(S(=O)(=O)N/N=C2/CCCC(=O)C2)cc1", "activity, negative = inhibition": "inactive: 4.73%"}, {"smiles": "COC(=O)c1ccc2nc(-c3ccc4c(c3)OCO4)cn2c1", "Potency": "inconclusive: 1.78 µM [inhibitor, full curve]"}, {"smiles": "COc1ccc(-n2c(CCc3ccccc3)nnc2SCC(=O)c2ccc(Cl)cc2)cc1", "activity, negative = inhibition": "inactive: 5.57%"}, {"smiles": "CCn1c(SCC(=O)N2CCN(c3cccc(Cl)c3)CC2)nc2ccccc2c1=O", "Potency": "inconclusive: 22.4 µM [inhibitor, partial curve, poor fit]"}, {"smiles": "COC(=O)C/C=C/[C@@H](C)[C@@H](/C=N/OC[C@H]1O[C@H](c2ccccc2)C=C[C@@H]1Oc1ccc(OC)cc1)OC", "Potency": "inconclusive: 15.8 µM [inhibitor, partial curve]"}, {"smiles": "COc1c(Br)cc([N+](=O)[O-])c(OC)c1C(=O)NC(=O)Nc1c(Cl)cccc1Cl", "Potency": "inconclusive: 15.8 µM [inhibitor, partial curve]"}, {"smiles": "Nc1ccc2c(c1)ncn2CCCn1cnc2cc(N)ccc21", "Potency": "inconclusive: 31.6 µM [inhibitor, single point]"}, {"smiles": "COc1cccc(CNC(=O)c2ccc3c(c2)nc2n3CCCCC2)c1OC", "activity, negative = inhibition": "inactive: -1.77%"}, {"smiles": "Cc1cccnc1Nc1nc(-c2ccc(O)cc2)cs1", "Potency": "active: 12.6 µM"}]}]}
